{"source": "PubChem BioAssay AID902", "about": "(National Center for Advancing Translational Sciences (NCATS), 2007)", "note": "The whole screen tested about 130,000 compounds, of which about 1,900 (1.5%) were called active. This list was built around the results that the source calls inconclusive (neither active nor inactive); the mix of calls is not that of the screen. Calls follow the shape of the dose curve; as a rule, active = well fitted cell-killing curve with a large enough effect; inconclusive = small, poorly fitted or top-dose-only effect; inactive = no such curve, though single readings can be large or run the other way. A potency beside an inconclusive call is a rough fit, not a confirmed value. % is scaled to controls: 0 for no effect and ±100 for the full control effect; potency is read from the fitted curve at half-maximal effect; tags tell the direction and shape of the fitted curve.", "data": [{"test": "qHTS Screen for Compounds that Selectively Target Cancer Cells with p53 Mutations: Cytotoxicity of p53ts Cells at the Nonpermissive Temperature; also: nearly all actives have a fitted effect of over 55% in size", "conditions": "H1299-p53A138V viability at 39C, ATP luminescence, 24 h; activity change, negative = cell killing: at 46.1 µM (top of the series)", "values": [{"smiles": "COc1cc(C(=O)NC(c2ccc(Cl)cc2)c2cc(Cl)c3cccnc3c2O)cc(OC)c1OC", "note": "(stereo not given)", "Potency": "inconclusive: 0.501 µM [cytotoxic, full curve, poor fit]"}, {"smiles": "O=S(=O)(c1ccc(SCCO)nc1)N1CCCC1", "activity change, negative = cell killing": "inactive: -3.68%"}, {"smiles": "COc1cc(C2c3c(-c4ccccc4O)n[nH]c3C(=O)N2Cc2ccco2)ccc1OCC(C)C", "note": "(stereo not given)", "Potency": "active: 20 µM"}, {"smiles": "O=C(CN1C(=O)c2ccccc2C1=O)N1CCN(c2ccccn2)CC1", "activity change, negative = cell killing": "inactive: 2.47%"}, {"smiles": "Cc1ccc(-n2c(=O)c3cccnc3n2CC(=O)Nc2cc(Cl)ccc2C)cc1", "Potency": "inconclusive: 0.158 µM [cytotoxic, partial curve]"}, {"smiles": "c1ccc(Nc2nc(-c3cccs3)cs2)nc1", "Potency": "inconclusive: 12.6 µM [cytotoxic, single point]"}, {"smiles": "Cc1nn(C(C)C(=O)N2CCN(c3ccc(Cl)cc3)CC2)c(=O)c2cc3occc3n12", "note": "(stereo not given)", "Potency": "inconclusive: 7.94 µM [cytotoxic, partial curve]"}, {"smiles": "O=C(/C=C/Nc1ccccc1Br)c1ccccn1", "Potency": "active: 1.26 µM"}, {"smiles": "CSc1ccc(/C=C/c2nc3ccccc3n2S(=O)(=O)c2cccc(Cl)c2)cc1", "Potency": "active: 3.98 µM"}, {"smiles": "CCCC[C@H]1C[C@@H]1[C@@H]1N(P(=O)(c2ccccc2)c2ccccc2)C[C@@](O)(c2ccccc2)CC12CC2", "Potency": "inconclusive: 12.6 µM [cytotoxic, single point]"}, {"smiles": "COc1ccc(OC)c(NS(=O)(=O)c2ccc(-c3cc(C)no3)s2)c1", "activity change, negative = cell killing": "inactive: -9.28%"}, {"smiles": "CCOc1ccc(N2Cc3ccccc3C2)cc1", "Potency": "inconclusive: 12.6 µM [cytotoxic, partial curve]"}, {"smiles": "CC1(C)NC(=O)N(c2ccc([N+](=O)[O-])c(C(F)(F)F)c2)C1=O", "Potency": "inconclusive: 31.6 µM [cytotoxic, partial curve]"}, {"smiles": "CCOC(=O)c1c(C)[nH]c(C)c1S(=O)(=O)N1CCN(c2cccc(C(F)(F)F)c2)CC1", "Potency": "inconclusive: 3.16 µM [cytotoxic, partial curve]"}, {"smiles": "COc1ccc(C(=O)Nc2cccc(C)c2)cc1", "Potency": "active: 5.01 µM"}, {"smiles": "COc1cc(OC)cc(-c2cc3nc(C)c(CCC(=O)NCc4ccc(Cl)cc4)c(C)n3n2)c1", "Potency": "inconclusive: 7.94 µM [cytotoxic, partial curve]"}, {"smiles": "CC(C)(C)C1CCc2onc(C(=O)Nc3cccnc3)c2C1", "note": "(stereo not given)", "Potency": "inconclusive: 31.6 µM [cytotoxic, single point]"}, {"smiles": "NC(=O)c1nc(Nc2ccccc2)sc1NC(=O)c1ccccc1Br", "activity change, negative = cell killing": "inactive: -17%"}, {"smiles": "COc1ccc2c(c1)Sc1ccccc1N2CCN(C)C", "Potency": "inconclusive: 12.6 µM [cytotoxic, partial curve]"}, {"smiles": "COc1ccc(OC)c2[nH]c(=O)c(CCNC(=O)c3cc4ccccc4o3)cc12", "Potency": "inconclusive: 25.1 µM [cytotoxic, single point]"}, {"smiles": "O=C(CSc1ccc2nnc(-c3ccccn3)n2n1)NCc1ccc2c(c1)OCO2", "Potency": "inconclusive: 12.6 µM [cytotoxic, partial curve]"}, {"smiles": "COc1cc(NC(=O)CSc2nc3ccccc3nc2Cc2ccc(Cl)cc2)cc(OC)c1", "Potency": "inconclusive: 12.6 µM [cytotoxic, single point]"}, {"smiles": "CCCC[S@@](=N)(=O)CC[C@@H](N)C(=O)O", "Potency": "inactive"}, {"smiles": "c1ccc(Cn2nnc3c(N4CCCC4)ncnc32)cc1", "activity change, negative = cell killing": "inactive: 0.119%"}, {"smiles": "O=C(CSc1nc2ncc(Br)cc2[nH]1)Nc1ccc2c(c1)OCO2", "Potency": "inconclusive: 31.6 µM [cytotoxic, single point]"}, {"smiles": "Cc1ccc(C(C)C)c(OCC(=O)N2CCC(c3nc4ccccc4o3)CC2)c1", "Potency": "inconclusive: 25.1 µM [cytotoxic, single point]"}, {"smiles": "COc1ccc2nc(N(Cc3cccnc3)C(=O)c3ccc4c(c3)OCCO4)sc2c1", "Potency": "inconclusive: 3.98 µM [cytotoxic, single point]"}, {"smiles": "Cc1nn2c(=O)cc(COC(=O)c3cccc(NC(=O)c4cccs4)c3)nc2s1", "activity change, negative = cell killing": "inactive: -9.34%"}, {"smiles": "COc1ccc(-c2oc3ccccc3c(=O)c2O)cc1OC", "Potency": "inconclusive: 10 µM [cytotoxic, single point]"}, {"smiles": "Cc1cccc(N(C)S(=O)(=O)c2cc3c(cc2Cl)NC(=O)CO3)c1", "Potency": "inconclusive: 10 µM [cytotoxic, partial curve]"}, {"smiles": "Oc1c([C@H](Nc2ccccn2)c2ccccc2)ccc2cccnc12", "Potency": "inconclusive: 5.01 µM [cytotoxic, single point]"}, {"smiles": "COc1cc(NC(=O)Cn2nc(C(F)(F)F)c3c2CCCC3)c(OC)cc1Cl", "Potency": "inconclusive: 31.6 µM [cytotoxic, single point]"}, {"smiles": "CCCCOC(=O)c1ccc(NC(=O)c2cc3c(=O)n4cccc(C)c4nc3n2C)cc1", "Potency": "inconclusive: 2.51 µM [cytotoxic, partial curve, poor fit]"}, {"smiles": "Cc1cc(SCC(=O)c2ccccc2)n2nc(C)nc2n1", "Potency": "inconclusive: 31.6 µM [cytotoxic, single point]"}, {"smiles": "O=C(Nc1ccc(N2CCN(C(=O)c3ccco3)CC2)c(Cl)c1)c1cc2ccccc2o1", "Potency": "inconclusive: 15.8 µM [cytotoxic, single point]"}, {"smiles": "Cc1ccc(C)c(Cn2c(=O)n(CCCCC(=O)NCc3ccccc3Cl)c(=O)c3ccccc32)c1", "Potency": "active: 25.1 µM"}, {"smiles": "Cc1c(N=Cc2c(O)n(Cc3ccco3)c(=O)c3ccccc23)c(=O)n(-c2ccccc2)n1C", "Potency": "inactive"}, {"smiles": "Cc1ccc(Cl)c2sc(NC(=O)CS(=O)(=O)c3ccc(Cl)cc3)nc12", "Potency": "inconclusive: 31.6 µM [cytotoxic, single point]"}, {"smiles": "CCn1cc(C(=O)NCc2ccc(C)cc2)c(=O)c2cc(S(=O)(=O)N3CCC(C)CC3)ccc21", "Potency": "inconclusive: 12.6 µM [cytotoxic, single point]"}, {"smiles": "O=C(CN1C(=O)C2CCCCN2c2ccc(C(=O)N3CCCC3)cc21)NCc1cccc(Cl)c1", "note": "(stereo not given)", "Potency": "inconclusive: 0.0251 µM [cytotoxic, full curve, poor fit]"}, {"smiles": "COc1ccccc1CNC(=O)c1ccc(CS(=O)(=O)c2ccccc2C)o1", "activity change, negative = cell killing": "inactive: 2.13%"}, {"smiles": "Cc1nn(-c2ccccn2)c2c1-c1nc(N)ncc1CC2", "Potency": "inconclusive: 12.6 µM [cytotoxic, partial curve]"}, {"smiles": "Cc1cccc(N2CCN(C(=O)CSCc3ccc(F)cc3)CC2)c1C", "Potency": "inconclusive: 31.6 µM [cytotoxic, single point]"}, {"smiles": "CCOc1ccc2nc(NC(=O)CS(=O)(=O)c3ccc(Cl)cc3)sc2c1", "Potency": "inconclusive: 12.6 µM [cytotoxic, partial curve]"}, {"smiles": "COc1ccc(S(=O)(=O)Nc2ccc(C)cc2)cc1OC", "activity change, negative = cell killing": "inactive: 3.71%"}, {"smiles": "COC(=O)c1ccc(-n2nnc(-c3nc(-c4ccc5c(c4)OCO5)no3)c2C)cc1", "activity change, negative = cell killing": "inactive: 3.17%"}, {"smiles": "CC(=O)NCCNc1nc2c(S(=O)(=O)c3ccc(C)c(C)c3)nnn2c2ccc(Cl)cc12", "Potency": "inconclusive: 0.01 µM [cytotoxic, full curve, poor fit]"}, {"smiles": "CCCCCCCCCCCCC[N+](C)(C)Cc1ccccc1", "Potency": "active: 12.6 µM"}, {"smiles": "O=C(NCc1ccc(F)cc1)c1cc2c(=O)n3ccccc3nc2s1", "activity change, negative = cell killing": "inactive: 9.44%"}, {"smiles": "Cc1cc(C)cc(NS(=O)(=O)c2ccc3[nH]cc(C(=O)N(C)Cc4ccccc4)c(=O)c3c2)c1", "Potency": "inconclusive: 31.6 µM [cytotoxic, single point]"}, {"smiles": "Cc1nc2ccccn2c(=O)c1NC(=O)c1ccc(C(F)(F)F)cc1", "activity change, negative = cell killing": "inactive: -26.7%"}, {"smiles": "COc1cccc(-c2nc(N3CCNCC3)c3ccccc3n2)c1", "Potency": "inconclusive: 20 µM [cytotoxic, single point]"}, {"smiles": "COC(=O)c1ccccc1NC(=O)c1ccc2c(c1)CCN2S(C)(=O)=O", "activity change, negative = cell killing": "inactive: -27.1%"}, {"smiles": "COc1ccc(CC(=O)Nc2cccc(-c3nnc(-c4cccc(C)c4)o3)c2)cc1OC", "Potency": "inconclusive: 20 µM [cytotoxic, single point]"}, {"smiles": "Cc1ccc(-c2nnc(SCc3ccccc3F)o2)cc1", "Potency": "inconclusive: 25.1 µM [cytotoxic, partial curve]"}, {"smiles": "CCCCCCC1C(C#N)=C(N)OC2=C1C(=O)CCC2", "note": "(stereo not given)", "Potency": "active: 15.8 µM"}, {"smiles": "Cc1ccc(C2=Nc3ccccc3N(CC(=O)NCc3ccc(F)cc3)C(=O)C2)cc1C", "Potency": "active: 10 µM"}, {"smiles": "Cc1ccc(/C=N/c2sc3c(c2C#N)CCC3)s1", "Potency": "inconclusive: 3.98 µM [cytotoxic, full curve]"}, {"smiles": "CCN1C(=O)c2ccccc2S(=O)c2ccc(C(=O)N3CCN(c4cccc(C)c4)C(C)C3)cc21", "note": "(stereo not given)", "Potency": "inconclusive: 12.6 µM [cytotoxic, single point]"}, {"smiles": "O=C(Nc1ccc2c(c1)OCCO2)c1ccc(NC(=O)C2CCCO2)cc1", "note": "(stereo not given)", "Potency": "inconclusive: 12.6 µM [cytotoxic, partial curve]"}, {"smiles": "CCc1ccc2c(c1)C1(NN=C(c3ccc(C)cc3)S1)C(=O)N2", "note": "(stereo not given)", "Potency": "inconclusive: 20 µM [cytotoxic, single point]"}, {"smiles": "Cc1cccc(CNC(=O)CSCc2cnn(-c3ccccc3)c2-n2cccc2)c1", "activity change, negative = cell killing": "inactive: -15.3%"}, {"smiles": "CCOc1ccc(-c2nc(Cn3c(=O)cc(-c4ccccc4)c4c(C)nn(C)c43)c(C)o2)cc1", "activity change, negative = cell killing": "inactive: -14.2%"}, {"smiles": "COc1ccc(NC(=O)Cn2nnc(-c3ccccc3NC(=O)c3ccco3)n2)cc1", "Potency": "inconclusive: 25.1 µM [cytotoxic, single point]"}, {"smiles": "COC(=O)c1sc(NC(=O)c2ccc(OC)cc2OC)nc1C", "Potency": "active: 0.316 µM"}, {"smiles": "O=C(Nc1ccc2nc(SCC(=O)N3CCc4ccccc43)sc2c1)c1ccc(F)cc1", "Potency": "active: 12.6 µM"}, {"smiles": "Cc1nnc(OCc2nc3ccccc3n2C)c2ccccc12", "activity change, negative = cell killing": "inactive: -2.4%"}, {"smiles": "OCc1cc(C(O)CNCCCCCCOCCCCc2ccccc2)ccc1O", "note": "(stereo not given)", "Potency": "active: 12.6 µM"}, {"smiles": "Cc1ccc(CNc2ncnc3c2cnn3-c2ccc(Cl)cc2)cc1", "activity change, negative = cell killing": "inactive: -18.5%"}, {"smiles": "COc1ccc(Cl)cc1NC(=O)c1nnn(Cc2cccc(C(F)(F)F)c2)c1N", "Potency": "inconclusive: 12.6 µM [cytotoxic, single point]"}]}]}
